Experimental data taken from PubChem BioAssay AID1347120 (National Center for Advancing Translational Sciences (NCATS), 2019).
In all, about 390,000 compounds went through this assay and about 930 (0.24%) were called active. Inconclusive means that the source gave no clear call. Such entries were picked first, then a sample of the others. Calls come from the whole dose curve; as a rule, active = well fitted activation curve with a large enough effect; inconclusive = small, poorly fitted or top-dose-only effect; inactive = no such curve, though single readings can be large or run the other way. Potencies beside an inconclusive call are fits to weak or partial responses and may not hold up.

Assay: qHTS for Suppressors of FUS Proteinopathy: Primary screen using FUS-linked yeast assay; note: nearly all actives have a fitted effect of over 55% in size;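 for growth rescue (activation): plate controls were DMSO vehicle for no effect and reference control for full effect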
Conditions: S. cerevisiae FUS-expressing, OD600, 24 h; Potency: growth rescue; growth rescue (activation): at 76.6 µM (top of the series)
Summary of the method: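 Read-out: OD at 600 nm after 24hr at 30C, reporting rescue of FUS-induced yeast toxicity. Cells at OD 0.005 in galactose (2%) minimal medium; compounds tested in a dilution series; CP55940 titration from 92uM final as control.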
Potency is the fitted concentration of half-maximal effect; tags give direction and shape of the fitted curve.

Row | SMILES | Potency | growth rescue (activation)
1 | C[C@H](CO)N1C[C@H](C)[C@@H](CN(C)C(=O)Nc2ccccc2)Oc2ccc(NC(=O)Nc3ccc(C(F)(F)F)cc3)cc2C1=O | inconclusive: 17.8 µM [activator, single point] | –
2 | CCOc1ccc(CNC(=O)Cn2nc(C)c3nn(-c4ccc(Cl)cc4)c(C)c3c2=O)cc1 | inactive | –
3 | COc1ccccc1NC(=O)c1sc2nc(-c3cc4cc(Cl)ccc4oc3=O)[nH]c(=O)c2c1C | inactive | –
4 | COc1ccc(S(=O)(=O)N2CCCCC2)cc1NC(=O)c1c(F)cccc1Cl | inconclusive: 39.8 µM [activator, partial curve, poor fit] | –
5 | Cc1ccc(CNC(=O)c2oc3ccc(S(=O)(=O)N4CCCC(C)C4)cc3c2C)cc1 (stereo not given) | inconclusive: 8.91 µM [activator, partial curve] | –
6 | CCCc1c(C(=O)N/N=C/c2ccco2)nnn1-c1nonc1N | inconclusive: 8.91 µM [activator, partial curve] | –
7 | Cc1cccc(COCC(CC(C)C)N2CCN(C(=O)c3ccc(C(F)(F)F)cc3)CCC2=O)c1 (stereo not given) | inconclusive: 28.2 µM [activator, single point] | –
8 | CC(C)(Cc1ccc(O)cc1)NC(=O)CC(=O)N/N=C/c1ccc(Cl)cc1 | inactive | –
9 | O=C(O)c1cccc(NS(=O)(=O)c2cccc3nsnc23)c1 | inconclusive: 50.1 µM [activator, partial curve, poor fit] | –
10 | CCOC(=O)C1CCCN(C(=O)c2sc3nc(-c4ccc(OC)cc4)cn3c2C)C1 (stereo not given) | inconclusive: 39.8 µM [activator, single point] | –
11 | COC(=O)C(C)Oc1ccc(-c2nccc(-c3ccc(F)cc3)n2)cc1 (stereo not given) | inconclusive: 31.6 µM [activator, single point] | –
12 | COc1cccc(CNC(=O)CN(C)S(=O)(=O)c2cccc3cccnc23)c1 | inconclusive: 3.55 µM [activator, partial curve, poor fit] | –
13 | c1ccc(-c2nnc(-c3ccccc3)o2)cc1 | inconclusive: 7.94 µM [activator, partial curve, poor fit] | –
14 | Cn1c(Sc2ccc(Cl)cc2)c(C=O)c2ccccc21 | inactive | –
15 | COc1ccc(CNC(=O)c2ccc3c(c2)N=C(C)c2c(C)ccc(C)c2S3)cc1 | inconclusive: 11.2 µM [activator, partial curve] | –
16 | CCN(c1cccc(C)c1)C1C(=O)c2ccccc2N1C(C)=O (stereo not given) | inactive | –
17 | COc1ccccc1OCC(=O)Nc1ccc(C(N)=O)cc1 | – | inconclusive: 91.1% [activator]
18 | CCc1ccc(C(C)NC(=O)/C(C#N)=C\c2cn[nH]c2-c2ccccc2)cc1 (stereo not given) | inconclusive: 35.5 µM [activator, single point] | –
19 | CC1CCCCN1C(=O)CSc1nc2ccccc2nc1Cc1ccccc1 (stereo not given) | inconclusive: 50.1 µM [activator, single point] | –
20 | Cc1ccccc1N1C(=O)CC(N2CCC(C(N)=O)CC2)C1=O (stereo not given) | inactive | –
21 | Cc1ccc(-c2nc3ccc(Cl)cn3c2Cc2cccc(Cl)c2)cc1 | inconclusive: 31.6 µM [activator, single point] | –
22 | COc1ccc(N2C(=O)N3[C@@H]4c5ccccc5OC[C@@H]4[C@@H](c4ccccc4)[C@@]3(C)C2=O)cc1 | inconclusive: 25.1 µM [activator, partial curve] | –

Row | SMILES | Potency | growth rescue (activation)
23 | COC(=O)[C@]12C[C@H](CC(=O)N3CCCCC3)C(=O)N(Cc3ccc(Cl)cc3Cl)C1=C[C@H](COCc1ccccc1)O[C@@H]2C | inconclusive: 22.4 µM [activator, single point] | –
24 | COc1ccc2nc(NC(=O)C3=NN(c4ccccc4)C(=O)CC3)sc2c1 | inconclusive: 50.1 µM [activator, single point] | –
25 | Cc1cccc(NC(=O)c2cc(-c3cccnc3)nc3c(C)cccc23)n1 | inconclusive: 22.4 µM [activator, partial curve] | –
26 | COc1ccc2cc(C#N)c(N3CCN(C(=O)c4ccccc4C)CC3)nc2c1 | inactive | –
27 | CNC(=O)c1[nH]nc2c1CCc1cc(OC)ccc1-2 | inactive | –
28 | Cc1ccc(S(=O)(=O)Nc2cc(C(F)(F)F)ccc2N2CCOCC2)c(C)c1 | inconclusive: 28.2 µM [activator, single point] | –
29 | CC(C)(C)n1ncc2c(=O)n(Cc3cccc(Cn4cnc5c(cnn5C(C)(C)C)c4=O)c3F)cnc21 | inconclusive: 44.7 µM [activator, single point] | –
30 | CC1c2cc3c(cc2CCN1CC(=O)Nc1ccccc1)OCCCO3 (stereo not given) | inactive | –
31 | Cc1oc2c(C)c(O)ccc2c(=O)c1-c1cnn(-c2ccccc2)c1 | inconclusive: 7.94 µM [activator, full curve] | –
32 | C[C@H](CO)N1C[C@H](C)[C@@H](CN(C)C(=O)Nc2ccc3c(c2)OCO3)Oc2ccc(NC(=O)NC3CCCCC3)cc2C1=O | inconclusive: 35.5 µM [activator, single point] | –
33 | CSc1nc2ccccc2nc1N(C)S(=O)(=O)c1ccc(C)cc1 | inactive | –
34 | CCCCCSc1nc2c(c(=O)[nH]c(=O)n2C)n1CC | inactive | –
35 | O=C(NC(=S)Nc1ccccc1N1CCCC1)c1ccc([N+](=O)[O-])cc1 | inconclusive: 8.91 µM [activator, single point] | –
36 | CC(C)(C)c1ccc(C(=O)N2CCC(C(=O)NC3CCCCCC3)CC2)cc1 | inconclusive: 15.8 µM [activator, partial curve] | –
37 | Cc1ccc(CS(=O)Cc2ccc(C(=O)N3CCN(c4cccc(C)c4C)CC3)o2)cc1 (stereo not given) | inconclusive: 35.5 µM [activator, single point] | –
38 | O=C(NC1CCCC1)c1ccc2nc(-c3ccco3)c(-c3ccco3)nc2c1 | inconclusive: 22.4 µM [activator, partial curve] | –
39 | COC(=O)c1ccccc1NC(=O)c1ccc(COc2ccccc2)o1 | – | inconclusive: 54.7% [activator]
40 | CCOc1ccccc1NC(=O)c1cccc2ccccc12 | inactive | –
41 | O=C(N/N=C/C1CC=CCC1)c1cc2ccccc2cc1O (stereo not given) | inconclusive: 8.91 µM [activator, partial curve, poor fit] | –
42 | Cc1nn(C)c(Oc2ccc(Cl)cc2)c1C(=O)Nc1ccc(F)cc1F | inconclusive: 12.6 µM [activator, partial curve] | –
43 | CC(=O)c1cccc(OC(=O)c2cc(S(=O)(=O)N3CCOCC3)ccc2N2CCCC2)c1 | inactive | –
44 | COc1cc(Nc2nc(SCc3ccccc3F)nc3ccccc23)cc(OC)c1 | inactive | –

Row | SMILES | Potency | growth rescue (activation)
45 | COc1ccc(C2C(=O)N(C3CCC(C)CC3)CC(=O)N2Cc2ccc(C)cc2)cc1OC (stereo not given) | inactive | –
46 | CCCCNc1ccc(-c2nc(-c3ccccc3)no2)cc1[N+](=O)[O-] | inactive | –
47 | COc1cc([N+](=O)[O-])ccc1NC(=O)NCC1CCN(Cc2ccc(Cl)cc2)CC1 | inactive | –
48 | O=S(=O)(c1cccc(C(F)(F)F)c1)N1CCC(CO)(CCCc2ccccc2)CC1 | inconclusive: 22.4 µM [activator, single point] | –
49 | CCOc1ccc(N2C(=O)c3cccnc3C2Nc2ccc(C)cc2)cc1 (stereo not given) | inconclusive: 15.8 µM [activator, partial curve, poor fit] | –
50 | CC(=O)N1CC[n+]2c(-c3ccc([N+](=O)[O-])cc3)csc21 | inconclusive: 50.1 µM [activator, partial curve, poor fit] | –
51 | CCOc1ccc(CC(=O)NNC(=S)NC2CCCCC2)cc1OCC | inconclusive: 56.2 µM [activator, single point] | –
52 | O=C(Cn1nnc(-c2ccccc2Cl)n1)N1CCN(S(=O)(=O)c2ccc(Cl)cc2)CC1 | inconclusive: 28.2 µM [activator, single point] | –
53 | CC1CCN(S(=O)(=O)c2ccc3c(c2)N(CC(=O)NCc2ccccc2Cl)C(=O)CS3)CC1 | inconclusive: 50.1 µM [activator, single point] | –
54 | COc1cccc(-c2cc(NC=O)c3ncc(-c4cc(OC)c(OC)c(OC)c4)n3c2)c1 | inconclusive: 50.1 µM [activator, single point] | –
55 | COc1ccc(CC(NC(C)=O)C(=O)NC2CCN(c3nc(C)cc(C)c3C#N)CC2)c(OC)c1 (stereo not given) | inactive | –
56 | COc1nc(NC23CC4CC(CC(C4)C2)C3)nc(OC)n1 | inactive | –
57 | COc1ccc(CCn2c(NN=C3CCCCC3)nc3c2c(=O)[nH]c(=O)n3C)cc1 | inconclusive: 31.6 µM [activator, partial curve, poor fit] | –
58 | Cc1cccc(NC(c2cccc(F)c2)c2ccc3ccc(C)nc3c2O)n1 (stereo not given) | inconclusive: 3.16 µM [activator, full curve, poor fit] | –
59 | Cc1ccc(NC(=O)Cc2nc(COC(=O)C(C)NS(=O)(=O)c3ccc(C)cc3)cs2)cc1 (stereo not given) | inconclusive: 31.6 µM [activator, single point] | –
60 | CCCn1c2ccccc2c2cnn(CC(=O)N(CCCOC(C)C)Cc3ccco3)c(=O)c21 | inconclusive: 20 µM [activator, single point] | –
61 | Oc1ccc(C[C@H]2CN([C@@H](Cc3ccccc3)CN3CCCC3CN3C(=S)NC[C@@H]3Cc3ccccc3)C(=S)N2CCc2ccccc2)cc1 (stereo not given in full) | inconclusive: 28.2 µM [activator, single point] | –
62 | Brc1ccc2nc(-c3ccncc3)c(NC3CCCC3)n2c1 | inactive | –
63 | CCN(CC)CCN(Cc1cc2ccc(C)cc2[nH]c1=O)C(=S)Nc1ccccc1C(=O)OC | inactive | –
64 | O=C(NC1CCCCN(Cc2cccc(C(F)(F)F)c2)C1=O)c1ccc(F)cc1 (stereo not given) | inconclusive: 15.8 µM [activator, partial curve, poor fit] | –
65 | Cc1c(NS(=O)(=O)c2ccc(NCCN3CCOCC3)c([N+](=O)[O-])c2)c(=O)n(-c2ccccc2)n1C | inconclusive: 50.1 µM [activator, single point] | –
